From PubChem BioAssay AID588855 (National Center for Advancing Translational Sciences (NCATS), 2011)
In all, about 410,000 compounds went through this assay and about 5,000 (1.2%) were called active. Roughly 13% stayed inconclusive and do not appear here. Calls come from the whole dose curve; as a rule, active = well fitted inhibition curve with a large enough effect; inconclusive = small, poorly fitted or top-dose-only effect; inactive = no such curve, though single readings can be large or run the other way. Where a structure was tested more than once in an assay, its records may differ in their call. For part of its entries the source gives two or more results. They are shown here; other results are not. There may be further records. Values that stand side by side repeat one measurement across runs, samples, wells, individuals or studies. Brackets tell where a record comes from. Letters hold for one entry only.

Assay: qHTS for Inhibitors of TGF-b; note: nearly all actives have a fitted effect of over 65% in size
Details: HepG2 CAGA-GFP TGF-b/SMAD3 reporter, GFP fluorescence, 18 h, TGF-beta stimulated, 500 pg/mL final; series mostly up to 46.1 µM
Excerpt: TGF-b is a main component in the TGF-b signaling pathway which plays diverse roles in cellular and development pathways. TGF-b is the mediated by the transcription factors Smads. Although the Smad-dependent pathway is the primary canonical TGF-b signaling node, TGF-b1 can also activate alternative signaling pathways, including those involving MAPK (ERK, JNK and p38). This interaction may mediate or enhance Smad-dependent responses, or can exert Smad-independent effects. The complexity of this signaling cascade allows the TGF-b superfamily to perform unique, overlapping or redundant functions. We believe that targeting the TGF-beta pathway at the Smad-transcription factor level may eliminate the consequences of disrupting the entire pathway and offer specificity without affecting other signaling pathways. Smad3 is the primary transducer of TGF-b's signals and Smad3 regulates many functions attributed to TGF-b signaling. We hypothesize that Smad3 inhibitors will selectively eliminate Smad3-specific TGF-beta signals without undesired off-target effects. We aim to identify Smad3-small molecule antagonists using a quantitative high throughput screening (qHTS) approach.
A high-throughput assay was developed to screen the NIH Molecular Libraries Small Molecule Repository (MLSMR). This is a cell based assay, where TGF-b is tagged with GFP. A counterscreen is run that looks at cytotoxicity (please see summary AID).
MH087449NIH Chemical Genomics Center [NCGC]
NIH Molecular Libraries Probe Centers Network [MLPCN]
Assay Submitter (PI): Sushil Rane, National Institute of […]
Suspensions of trypsinized HEPG2 CAGA-GFP cells were dispensed into white, tissue culture-treated, solid 1536-well plates at 5uL/well (1000 cells/well final concentration) in DMEM medium supplemented with 1% FBS. Plates were incubated at 37 degrees C for 2 hours, after which 23 nL of compounds or DMSO were delivered to each well using a pin tool. One uL of recombinant TGF-beta in DMEM (1% FBS) was then dispensed (500 pg/mL final concentration), and plates were incubated at 37 degrees C for 18 hours. The plates were measured on an Acumen eX3 Explorer plate reader for GFP fluorescence (ex488/em500-530). GFP values were calculated by determining the mean GFP fluorescence of individual cells, and compiling these values for each well to determine a total well GFP signal. The %Activity was determined from the corrected fluorescence values. A titration of the known TGF-B inhibitor SB431542 was included to monitor plate performance, while unstimulated HEPG2 (-TGF-B) control wells were used to normalize %Activity of identified inhibitors; unstimulated wells corresponded to 100%Activity (full inhibition), while stimulated cell controls (+DMSO) were used to normalize 0%Activity (no inhibition).
Concentration-response curves were fitted to the signals arising from the resulting fluorescence. The concentration-effect curves were then classified based on curve quality (r2), response magnitude and degree of measured activity, and compounds were subsequently categorized based on their curve class.
Potency is the fitted concentration of half-maximal effect.

Which Potency does the source give for `CCc1ccc(CNC(=O)C2CCN(c3nnc(C)c4c(C)n(-c5ccc(C)cc5)nc34)CC2)cc1` here?
The Potency was “active: 8.91 µM [sample A] and inactive [sample B]”.

For `CCCCCCNS(=O)(=O)c1ccccc1Br`, which Potency is on record?
The Potency was “active: 15.8 µM [sample A] and inactive [sample B]”.

With `O=C(C[C@H]1C(=O)N(c2ccc(F)c(F)c2)C[C@@H]1Cc1ccccc1)Nc1ccccc1` as the compound, how does the Potency read?
Its Potency is “inactive [sample A] and active: 15.8 µM [sample B]”.

With `Cc1ccccc1CN1C(=O)c2ccccc2Sc2ccc(C(=O)NCCCN3CCOCC3)cc21` as the compound, how does the Potency read?
Its Potency is “inactive [sample A] and active: 11.2 µM [sample B]”.

For `CCOC(=O)/C=C/c1ccc(C(F)(F)F)cc1S(=O)(=O)NC(C)(C)C`, which Potency is on record?
Its Potency is “inactive [sample A] and active: 12.6 µM [sample B]”.
